Measured values published in a collection of fitness landscapes (doi:10.1126/science.1257360).
This is one part of the list.

B1: PhoQ; a variant is named by its letters at X, in order, P23837 (parent)
chain: MKKLLRLFFPLSLRVRFLLATAAVVLVLSLAYGMVALIGYSVSFDKTTFRLLRGESNLFYTLAKWENNKLHVELPENIDKQSPTMTLIYDENGQLLWAQRDVPWLMKMIQPDWLKSNGFHEIEADVNDTSLLLSGDHSIQQQLQEVREDDDDAEMTHSVAVNVYPATSRMPKLTIVVVDTIPVELKSSYMVWSWFIYVLSANLLLVIPLLWVAAWWSLRPIEALAKEVRELEEHNRELLNPATTRELTSLVRNLNRLLKSERERYDKYRTTLTDLTHSLKTPLXXLQXXLRSLRSEKMSVSDAEPVMLEQISRISQQIGYYLHRASMRGGTLLSRELHPVAPLLDNLTSALNKVYQRKGVNISLDISPEISFVGEQNDFVEVMGNVLDNACKYCLEFVEISARQTDEHLYIVVEDDGPGIPLSKREVIFDRGQRVDTLRPGQGVGLAVAREITEQYEGKIVAGESMLGGARMEVIFGRQHSAPKDE

Variants of: B1
Assay: enrichment ratio after two sorts for PhoP signalling (ratio (wild type AVST 3.29)); higher = more functional
Settings: with PhoP (E. coli)

Variant	enrichment ratio
LEDK	≤ 0.25
QMTN	≤ 0.25
LWHH	≤ 0.25
DFGN	≤ 0.25
YPIC	≤ 0.25
QSWA	14.9
EFAK	≤ 0.25
GEVK	≤ 0.25
DEGT	≤ 0.25
KMSL	≤ 0.25
QCCI	≤ 0.25
NPMQ	≤ 0.25
AAYS	≤ 0.25
DLRN	≤ 0.25
QWHS	≤ 0.25
FKNQ	≤ 0.25
DMHA	≤ 0.25
LKVL	≤ 0.25
PITD	≤ 0.25
PTSI	≤ 0.25
SPMR	≤ 0.25
NDWF	≤ 0.25
KDNR	≤ 0.25
EQMD	≤ 0.25
ELRV	≤ 0.25
HWYS	≤ 0.25

Variant	enrichment ratio
VYGE	≤ 0.25
EPML	≤ 0.25
WSES	≤ 0.25
GWDV	≤ 0.25
AWAV	≤ 0.25
APLQ	≤ 0.25
RHQV	≤ 0.25
IHDV	≤ 0.25
TYFP	≤ 0.25
QPNT	≤ 0.25
QYPR	≤ 0.25
CIFD	≤ 0.25
QDHW	≤ 0.25
REPD	≤ 0.25
KQLF	≤ 0.25
QIAA	≤ 0.25
ILLV	≤ 0.25
EVGW	≤ 0.25
IEIW	≤ 0.25
GITD	≤ 0.25
HWTG	≤ 0.25
TQMD	63
DIAK	≤ 0.25
MHKQ	≤ 0.25
SSKN	≤ 0.25
SQAR	≤ 0.25

Variant	enrichment ratio
SDRI	≤ 0.25
FVSM	≤ 0.25
SYQK	≤ 0.25
EISL	4.88
DYNS	≤ 0.25
CLRI	≤ 0.25
ARHK	≤ 0.25
VGVM	≤ 0.25
VWST	≤ 0.25
GPGV	≤ 0.25
GWLD	≤ 0.25
IDNL	≤ 0.25
RETL	≤ 0.25
LTYN	≤ 0.25
RYAN	≤ 0.25
VNLA	0.581
QMDI	≤ 0.25
QGAW	≤ 0.25
HDAY	≤ 0.25
QLKA	≤ 0.25
FQAH	≤ 0.25
QMTA	≤ 0.25
NRFK	≤ 0.25
FCAQ	≤ 0.25
AFPP	≤ 0.25
MDTL	≤ 0.25

Variant	enrichment ratio
PSGW	≤ 0.25
FSAF	≤ 0.25
MMIR	≤ 0.25
IWDQ	≤ 0.25
DCHH	≤ 0.25
QVPW	≤ 0.25
QHIA	≤ 0.25
LHTE	≤ 0.25
ACAH	4.6
WYTD	≤ 0.25
FCFD	≤ 0.25
LYNR	≤ 0.25
TIYR	2.57
DSPH	≤ 0.25
WFNH	≤ 0.25
LPAA	≤ 0.25
YPKC	≤ 0.25
DHFL	≤ 0.25
DHGS	≤ 0.25
EPCT	≤ 0.25
SYPH	≤ 0.25
PGCC	≤ 0.25
SIVP	≤ 0.25
YSAE	≤ 0.25
QVRC	≤ 0.25
IRKM	≤ 0.25

Variant	enrichment ratio
WTRW	≤ 0.25
PWKI	≤ 0.25
LCLQ	≤ 0.25
MPGP	≤ 0.25
AEEH	≤ 0.25
IDAI	≤ 0.25
INEF	≤ 0.25
AYRC	≤ 0.25
ICHP	≤ 0.25
NPHT	≤ 0.25
NAFL	0.25
IHGG	≤ 0.25
MLSV	≤ 0.25
NENG	≤ 0.25
VENN	≤ 0.25
IYEH	≤ 0.25
QRNF	≤ 0.25
PTFT	≤ 0.25
HRHE	≤ 0.25
LFPA	≤ 0.25
ISQC	≤ 0.25
ADKF	≤ 0.25
RGDS	≤ 0.25
FHQR	≤ 0.25
PFYP	≤ 0.25
HECV	15.4

Variant	enrichment ratio
MDQL	≤ 0.25
LCFK	≤ 0.25
ADVW	≤ 0.25
NFDR	≤ 0.25
GGGV	2.7
QPLW	≤ 0.25
IPVT	≤ 0.25
DMSS	≤ 0.25
DWAP	≤ 0.25
DMMY	≤ 0.25
RADG	≤ 0.25
SRCK	≤ 0.25
DLCL	≤ 0.25
TTCV	17.3
FSWQ	≤ 0.25
QQIS	≤ 0.25
PQLY	≤ 0.25
KSIS	≤ 0.25
TRLA	≤ 0.25
IEML	≤ 0.25
VQKY	≤ 0.25
GPCF	≤ 0.25
VKRN	≤ 0.25
